# Laboratory results reported in the supplement of paper PMC7826260.
# Some of the results follow. Viral Rep nickase domains cut single-stranded DNA in vitro (3 µM enzyme, 1 h, 37 °C); shown is the middle of each 90-letter strand. Uncut reads are compared with the no-enzyme pool on a log2 scale; uncut sequences lie near 0, cut ones below; no hit call is given. Counts are relative to all reads; uncut strands gain when others are lost, and binding without cutting may add a little.
# Legend:
# Experiment in all cases: uncleaved DNA left, log2 of reads against the no-enzyme library (log2 ratio); higher = less cleavage (more negative = more Rep cleavage of the k-mer); sequences stand for … in CTCGTCCG…ACCGGAGA
# [1] = system: T1, Rep nickase domain of Muscovy duck circovirus
# T1 sequence (Rep 1-111, printed without the tag): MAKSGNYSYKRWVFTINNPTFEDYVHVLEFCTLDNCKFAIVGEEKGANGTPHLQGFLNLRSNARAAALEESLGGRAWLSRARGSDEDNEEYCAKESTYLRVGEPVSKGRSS
# Method: (§1)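 A pool of 90-nt single-stranded DNAs with seven random bases just before the constant AC of the nick site (name = the seven bases) was cut by 3 µM recombinant His6-SUMO-tagged Rep nickase domain (300 nM DNA, 50 mM HEPES pH 8.0, 50 mM NaCl, 1 mM MnCl2, 1 h, 37 °C, three replicates). Uncut DNA was amplified and sequenced.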
# [2] = system: T2, Rep nickase domain of banana bunchy top virus
# T2 sequence (Rep 1-94, printed without the tag): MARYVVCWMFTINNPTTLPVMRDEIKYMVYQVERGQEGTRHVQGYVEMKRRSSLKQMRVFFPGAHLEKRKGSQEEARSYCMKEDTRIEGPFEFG
# Method: as §1
# [3] = system: T3, Rep nickase domain of cabbage leaf curl virus
# T3 sequence (Rep 1-116, printed without the tag): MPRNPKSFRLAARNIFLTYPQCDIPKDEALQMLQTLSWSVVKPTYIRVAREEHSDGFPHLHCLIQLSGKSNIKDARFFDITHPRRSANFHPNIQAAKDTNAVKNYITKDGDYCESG
# Method: as §1
# [4] = system: T4, Rep nickase domain of chickpea chlorotic dwarf virus
# T4 sequence (Rep 1-124, printed without the tag): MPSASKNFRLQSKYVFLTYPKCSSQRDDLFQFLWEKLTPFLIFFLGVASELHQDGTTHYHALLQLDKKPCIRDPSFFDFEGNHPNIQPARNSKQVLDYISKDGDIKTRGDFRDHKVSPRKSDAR
# Method: as §1
# [5] = system: T5, Rep nickase domain of faba bean necrotic yellows virus
# T5 sequence (Rep 1-98, printed without the tag): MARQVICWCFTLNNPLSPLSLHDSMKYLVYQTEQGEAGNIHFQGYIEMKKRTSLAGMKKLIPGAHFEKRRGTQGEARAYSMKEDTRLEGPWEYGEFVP
# Method: as §1
# [6] = system: T6, Rep nickase domain of maize striate mosaic virus
# T6 sequence (Rep 1-117, printed without the tag): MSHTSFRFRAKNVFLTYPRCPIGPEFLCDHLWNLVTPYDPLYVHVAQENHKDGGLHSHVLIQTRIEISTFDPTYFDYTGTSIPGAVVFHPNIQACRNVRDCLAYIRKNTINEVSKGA
# Method: as §1
# [7] = system: T7, Rep nickase domain of porcine circovirus 2
# T7 sequence (Rep 2-116, printed without the tag): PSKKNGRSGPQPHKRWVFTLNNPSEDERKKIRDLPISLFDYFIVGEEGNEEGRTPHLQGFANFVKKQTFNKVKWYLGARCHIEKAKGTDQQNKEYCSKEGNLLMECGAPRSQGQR
# Method: as §1
# [8] = system: T8, Rep nickase domain of tomato golden mosaic virus
# T8 sequence (Rep 1-124, printed without the tag): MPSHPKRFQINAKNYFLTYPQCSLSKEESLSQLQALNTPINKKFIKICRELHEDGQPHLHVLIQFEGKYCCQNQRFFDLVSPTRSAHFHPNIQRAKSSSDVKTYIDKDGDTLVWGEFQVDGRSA
# Method: as §1
# [9] = system: T9, Rep nickase domain of tomato yellow leaf curl virus
# T9 sequence (Rep 1-136, printed without the tag): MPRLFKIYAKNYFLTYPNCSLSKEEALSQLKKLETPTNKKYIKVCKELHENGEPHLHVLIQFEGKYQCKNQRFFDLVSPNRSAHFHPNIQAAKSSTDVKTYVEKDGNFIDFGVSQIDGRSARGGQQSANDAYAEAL
# Method: as §1
# [10] = system: T10, Rep nickase domain of wheat dwarf virus
# T10 sequence (Rep 1-137, printed without the tag): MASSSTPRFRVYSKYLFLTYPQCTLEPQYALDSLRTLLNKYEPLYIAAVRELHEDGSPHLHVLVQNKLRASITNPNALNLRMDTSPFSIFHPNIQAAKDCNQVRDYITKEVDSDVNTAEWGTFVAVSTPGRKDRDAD
# Method: as §1
Sequence,uncleaved DNA left (log2) [1],uncleaved DNA left (log2) [2],uncleaved DNA left (log2) [3],uncleaved DNA left (log2) [4],uncleaved DNA left (log2) [5],uncleaved DNA left (log2) [6],uncleaved DNA left (log2) [7],uncleaved DNA left (log2) [8],uncleaved DNA left (log2) [9],uncleaved DNA left (log2) [10]
AGAGAGG,0.0562,-0.0357,-0.017,0.57,0.0291,1.05,0.115,0.093,-0.0851,0.0231
CTTATAG,0.0389,0.047,-0.7,-0.366,0.0365,-1.08,0.229,0.0733,0.105,-0.0129
ATATTAT,-0.863,0.055,-0.178,-1.28,0.0908,-0.576,-1.8,0.0632,0.0826,-0.00334
GGCCGTA,-0.00271,0.0858,0.476,0.884,0.0692,1.37,0.0088,0.0768,0.00642,0.0376
TCCAAAA,-0.00726,-0.171,0.122,-0.00815,0.0125,-0.601,0.0115,0.00117,-0.0291,-0.104
AGCGGGT,0.0227,0.0817,0.145,0.557,-0.0282,1.48,0.0251,0.0593,-0.0858,-0.00596
ATACTTC,0.048,-0.0391,0.0521,-0.985,0.014,-0.704,0.093,0.0345,-0.0659,0.00984
TCCCTCG,-0.0258,-0.0927,-0.785,-0.534,0.00747,-1.27,-0.0971,-0.253,-0.0097,-0.222
GCCCCTC,-0.166,0.0382,0.155,0.332,0.00556,0.343,-0.0793,-0.0563,-0.00521,-0.0666
GGTCCGT,-0.0253,0.0744,0.452,1.14,-0.0782,1.41,0.134,0.00162,0.0221,0.0322
CCTGGTT,0.0099,-0.102,0.11,-0.664,-0.0376,0.447,-0.00525,-0.0474,-0.135,-0.0742
TTGGTTC,0.0176,-0.0454,0.194,-0.697,-0.0452,-0.135,-0.15,-0.0328,-0.126,-0.146
ATGGGAC,0.0932,0.133,0.868,1.96,-0.0519,2.08,0.26,0.181,0.00514,0.267
TGAGTCC,-0.0578,0.0216,0.185,0.145,-0.0342,0.374,-0.228,-0.0381,-0.0401,-0.123
TCGAGCG,0.131,0.153,-0.0515,0.285,0.124,-0.509,0.196,0.124,0.0819,-0.0157
TATGTCC,0.00812,-0.127,-0.0452,-0.783,-0.073,-0.551,-0.137,-0.141,-0.04,-0.0681
CGGCTTA,0.0881,0.041,0.135,0.0286,-0.0398,0.611,0.101,0.00105,-0.0718,0.052
TGTAGAT,-0.00729,0.0355,0.219,0.764,-0.0902,1.3,-0.075,-0.0195,-0.173,-0.0228
GGCTTGA,-0.00348,-0.0477,0.238,0.812,-0.02,1.59,0.00225,0.0501,-0.0714,0.0021
GTGTACT,-0.361,-0.0128,0.419,0.808,-0.102,1.95,-2.38,0.151,0.122,0.21
TCTTGCG,-0.024,-0.0318,-0.0504,1.11,0.0469,1.18,0.0779,-0.0679,-0.266,-0.13
TTGATAG,0.138,-0.111,-0.683,-0.593,0.0588,-1.03,0.122,0.00584,0.0179,-0.00554
TGCCTCG,0.064,-0.125,-0.612,-0.467,-0.00422,-1.1,-0.0239,-0.219,-0.0619,-0.179
CCACGTG,0.153,0.068,-0.765,-0.584,0.124,-0.867,0.237,0.0964,0.116,-0.107
ACAATCT,-0.0215,0.0674,-0.379,-2.24,-0.0158,-0.825,-0.0704,0.0923,-0.0598,0.0867
GATTAAC,0.1,0.0667,0.2,0.00041,0.073,0.818,0.0103,0.0844,0.157,0.193
CGCGCTG,-0.115,-0.0805,-0.0144,0.548,-0.0334,1.51,-0.0567,0.0145,-0.148,-0.0707
TCGGCGA,-0.204,-0.199,-0.702,-0.422,0.0237,-0.793,0.00936,-0.0597,-0.052,-0.281
CCGAGGC,0.00787,-0.0314,0.198,0.501,-0.0606,-0.0823,-0.0523,0.00409,-0.0639,-0.0764
GGGTCCG,0.155,0.101,0.562,1.2,0.094,1.27,0.244,0.0759,0.00122,0.164
